According to publication PMC12136788:
The other results are listed elsewhere or left out.

T1: UNK ZnF1-6 (called full-length) (human, UniProt Q9C0B0 30-357)
T1 sequence: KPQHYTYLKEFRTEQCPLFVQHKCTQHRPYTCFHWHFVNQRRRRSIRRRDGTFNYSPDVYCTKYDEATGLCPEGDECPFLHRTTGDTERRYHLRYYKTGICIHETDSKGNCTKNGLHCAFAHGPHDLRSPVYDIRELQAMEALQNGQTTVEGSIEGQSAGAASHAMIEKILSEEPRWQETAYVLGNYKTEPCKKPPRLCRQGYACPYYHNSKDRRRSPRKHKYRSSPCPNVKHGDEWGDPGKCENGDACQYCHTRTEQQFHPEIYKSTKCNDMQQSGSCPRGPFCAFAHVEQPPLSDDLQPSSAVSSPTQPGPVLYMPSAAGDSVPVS

B1: chr14:96489241:96489342:+|3pUTR|ENSG00000140057|unk|total|mutant (ssRNA)
RNA: GGGAGUUCUACAGUCCGACGAUCUAAAGUGUAUAAUUCAGUGGCACUAAGUUCAUUCACAAUGAUCUGCAGCCACCACUAUCCCGUCCAGAACUUUCUCAUCACCCCAAAUGGAAACCCAGCACCUAUCCGGCAGUCACGCUCCAACAGAGGAUUGAGCAUCA
B2: ENSG00000130720:stop:overlap|stop_codon|ENSG00000130720|stop_codon|NA|stop_codon (ssRNA)
RNA: GGGAGUUCUACAGUCCGACGAUCGCUGGCAGUACUCACUCAAGUUCUCUGAGAUGAAGAUCCGGCCGGUCCGGGAGGACCGCUAGACUGGUGCACCUUGUCCUUGGCCCUGCUGGUCCCUGUCGCCCCAUCCCCGACCCCACCCAACAGAGGAUUGAGCAUCA
B3: chr16:46956839:46956924:-|3pUTR|ENSG00000069345|msi1_unk|FALSE|overlapping (ssRNA)
RNA: GGGAGUUCUACAGUCCGACGAUCAUCAAUCCAGAUGAACUGAGGGACAUCUGUUGGUCUAUGUAUAACUUUUAAAAUUGGUAUAGUAUCUACAGAGUGUAUAAUUUAAACUAACCACAAAGCUUUACAUCUUCAUUUUGACUGCAACAGAGGAUUGAGCAUCA
B4: chr4:87981664:87981765:+|CDS|ENSG00000118785|msi1|FALSE|unique (ssRNA)
RNA: GGGAGUUCUACAGUCCGACGAUCCACUGAUUUUCCCACGGACCUGCCAGCAACCGAAGUUUUCACUCCAGUUGUCCCCACAGUAGACACAUAUGAUGGCCGAGGUGAUAGUGUGGUUUAUGGACUGAGGUCAAAAUCUAAGAACAACAGAGGAUUGAGCAUCA
B5: chr11:57233576:57235861:-|three_prime_utr|ENSG00000134817|control|control|control (ssRNA)
RNA: GGGAGUUCUACAGUCCGACGAUCAGAGAAGCCUGGCGCCCUCGGCCCUCCCCGGCCUUUGCCCUUGCUUUCUGAAAAUCAGGUAGUGUGGCUACUCCUUGUCCUAUGCACAUCCUUUAACUGUCCCCUGAUUCUGCCCCGCCCCAACAGAGGAUUGAGCAUCA
B6: ENSG00000198589:be:win_3601|CDS|ENSG00000198589|bound_else_gene|NA|bound_elsewhere_windowed (ssRNA)
RNA: GGGAGUUCUACAGUCCGACGAUCGUAGAAUCAGACCUUGGUCAGAUGCUGGAGGAAGGGAAGAAAGCAACUAACCUCACUAGAGAAACCAAAUUAAUUAAUGAUUGUCAUGGUAGUGUCUCUGAGGCUUCUUCUGAGCAAAAGCAACAGAGGAUUGAGCAUCA
B7: chr15:63071210:63071313:+|3pUTR|ENSG00000140416|unk|total|mutant (ssRNA)
RNA: GGGAGUUCUACAGUCCGACGAUCCCUUAAAUGCAAUUUAUUUACUUUUACCACUGUCACAGAAACAUCCACAAGAUACCAGCCCGGUCAGGGGGUGGGGAAAACACAUACAAAAAGGCAAGCCCAUGUCAGGGCGAUCCUGGUCAACAGAGGAUUGAGCAUCA
B8: ENSG00000124766:be:win_3251|3pUTR|ENSG00000124766|bound_else_gene|NA|bound_elsewhere_windowed (ssRNA)
RNA: GGGAGUUCUACAGUCCGACGAUCUCUCACACAGUUUAAAAAAUCAGCCCCUAAUUUCUCCAUGUUUACACUUCAAUCUGCAGGCUUCUUAAAGUGACAGUAUCCCUUAACCUGCCACCAGUGUCCACCCUCCGGCCCCCGUCUCAACAGAGGAUUGAGCAUCA
B9: chr15:80137503:80137604:+|CDS|ENSG00000086666|unk|total|mutant (ssRNA)
RNA: GGGAGUUCUACAGUCCGACGAUCCAAUUGCUCUUACAAUUACAAAGCCGAUGCUGCUGAGAAAAUCAGAAAAGAAAAUCCAGCCGUUGUUGGUGAAAAGAUCCAAAAGAUUUGAACUCCUGCUGGAAUACAAAAUUCUUGAGCCAACAGAGGAUUGAGCAUCA
B10: chr7:82953248:82953350:-|CDS|ENSG00000186472|unk|total|mutant (ssRNA)
RNA: GGGAGUUCUACAGUCCGACGAUCAACAGAUAUACACCCCAAACCAACAGGCCUAUCUUUAACUUCAAGUAUGACCUUAAAUUCCGUGACUUCAGCAGAUUAUAAAUUGCCUUCCCCUACCUCCCCACUUUCCCCACACUCCAACAACAGAGGAUUGAGCAUCA
B11: chr12:51809400:51809501:+|3pUTR|ENSG00000196876|unk|FALSE|unique (ssRNA)
RNA: GGGAGUUCUACAGUCCGACGAUCCUGCCUUGCAGUAGAAGCACUUUGAAGGUAAUUUCACAGUCCACCAGACUAGUUUUGCAUAGAACAAACCACAGUAAGUCGGCAAGCAGAGCUUUCUAUCUUGUUGGACCACUAGAAACUCAACAGAGGAUUGAGCAUCA
B12: chr2:197486603:197486717:-|3pUTR|ENSG00000144381|unk|FALSE|unique (ssRNA)
RNA: GGGAGUUCUACAGUCCGACGAUCCCACCAGAUGAGAAGUUAAGCAGCCUUUCUGUGGAGAGUGAGAAUAAUUGUGUACAAAGUAGAGAAGUAUCCAAUUAUGUGACAACCUUUGUGUAAUAAAAAUUUGUUUAAAGUUAAUAACAACAGAGGAUUGAGCAUCA
B13: chrX:21994482:21994713:+|3pUTR|ENSG00000102172|msi1|total|mutant (ssRNA)
RNA: GGGAGUUCUACAGUCCGACGAUCCAGCUGAAGGAUGGUCCGACAGCACAGCGAAGACUGCUAAAUGCACUGACCCCCCCCAUCCGAAUGUGAUUUUUGUUCCUUUUUAUUUCUCUGUGGGCUUUUGUUUUUGUUUUUGUUUUGCAACAGAGGAUUGAGCAUCA
B14: ENSG00000107863:be:win_5901|3pUTR|ENSG00000107863|bound_else_gene|NA|bound_elsewhere_windowed (ssRNA)
RNA: GGGAGUUCUACAGUCCGACGAUCAAGUAAAAAAACUACUGUUACACGUUCCAGUAACUCUGUCAAUAUUUUCUUGUAUCAGAAUUGUUAUUAUGCAGCCUUCAUUUGGGCUGGUUUCAUCAUUUUGCACUGUGAAAUAGCUUUCAACAGAGGAUUGAGCAUCA

Each binder was assayed against T1, UNK ZnF1-6 (called full-length) (assay: nsRBNS (natural sequence RNA bind-n-seq); RBNS binding buffer (assumed for nsRBNS): 25 mM Tris pH 7.5, 150 mM KCl, 3 mM MgCl2, 0.01% Triton X-100, 500 ug/ml BSA, 20 U/ml SUPERase-In, 4 C; UNK is unkempt and MSI1 is Musashi-1; names of the RNAs are library labels; protein concentration not given here; high values mean tight binding).

Binder	binding signal [enrichment R]
B1	0.445
B2	1.34
B3	0.932
B4	0.646
B5	1.03
B6	1.51
B7	1.67
B8	1.03
B9	0.334
B10	0.855
B11	1.04
B12	1.01
B13	0.898
B14	0.386
